Out of some 350,000 compounds screened, about 9,900 (2.8%) were called active. The inconclusive results got no clear call from the source; some entries with a clear call stand among them for comparison. Calls follow the shape of the dose curve; as a rule, active = well fitted activation curve with a large enough effect; inconclusive = small, poorly fitted or top-dose-only effect; inactive = no such curve, though single readings can be large or run the other way. Potencies of inconclusive entries are left out as doubtful fits.
Experiment: A quantitative high throughput screen for small molecules that induce DNA re-replication in MCF 10a normal breast cells. Also: nearly all actives have a fitted effect of over 50% in size. As to activity, positive = re-replication: % of control where 0% means no effect.
Settings: MCF 10A DNA re-replication, Hoechst nuclear intensity, 48 h; activity, positive = re-replication: at 46.1 µM (top of the series)
In the case of CN1CCC(OC(=O)c2cc3cc(Br)ccc3oc2=O)CC1, the Potency is reported as inconclusive [activator, partial curve, poor fit]. With O=C(Nc1ccc(F)cc1)c1nn(-c2ccccc2)c(=O)cc1Cl the Potency was inconclusive [activator, single point]. With CCc1nc(Nc2ccncc2)c2oc3ccccc3c2n1 the Potency was inconclusive [activator, partial curve, poor fit]. With CCOc1ccccc1NC(=O)CSc1cn[nH]n1 the Potency was active: 16.4 µM. With O=C(Nc1ccc(S(=O)(=O)Nc2ccc(Cl)cc2)cc1)C1CCCO1 (stereo unspecified) the “activity, positive = re-replication” value was inactive: -9.33%. In the case of O=C1C2C(C(=O)N1/N=C/c1ccc(N3CCCCC3)o1)C1C=CC2C12CC2 (stereo unspecified), the Potency is reported as active: 18.4 µM. For O=C(C1CCCN(S(=O)(=O)c2cccc3cccnc23)C1)N1CCc2ccccc21 (stereo unspecified), the Potency was inconclusive [activator, single point]. For Cc1ccnc(NC(=O)CCC2COc3ccccc3O2)c1 (stereo unspecified), the Potency was inconclusive [activator, single point]. For COc1ccc(-n2c(C)cc(C(=O)CN3CCCCC3)c2C)cc1, the “activity, positive = re-replication” value was inactive: 29.6%. In the case of COc1cc(OC)cc(-c2c(-c3cccs3)c3cc(-c4ccc5c(c4)OCCO5)ccc3n2C)c1, the Potency is reported as inconclusive [activator, full curve]. In the case of N#C/C(=C(/O)c1ccc([N+](=O)[O-])o1)c1nc2ccccc2[nH]1, the Potency is reported as active: 3.26 µM. In the case of Nc1c(C(=O)NC2CCCC2)c2nc3ccccc3nc2n1/N=C/c1ccco1, the Potency is reported as inconclusive [activator, full curve, poor fit]. For CC1CCN(CC(=O)Nc2nc(-c3ccccc3)cs2)CC1, the Potency was inconclusive [activator, partial curve, poor fit]. In the case of Cc1ccc(C(=O)c2cc([N+](=O)[O-])ccc2N2CCCCC2)c(C)c1, the Potency is reported as inconclusive [activator, full curve, poor fit]. With Cc1cc2ncc(-c3cccc(Cl)c3)cn2n1 the “activity, positive = re-replication” value was inactive: 9.45%. For CCCCOc1ccc(C2OC34CCCCC3C(C#N)(C#N)C2(C#N)C(=N)O4)cc1 (stereo unspecified), the Potency was inconclusive [activator, single point]. With CCCC(c1nnnn1Cc1ccco1)N1CCN(c2cc(Cl)ccc2C)CC1 (stereo unspecified) the Potency was active: 25.1 µM. For O=C1CCC/C(=N\NC(=O)COc2ccc(Cl)cc2)C1, the “activity, positive = re-replication” value was inactive: -6.99%. For CCOC(=O)c1[nH]c(C)c(C(=O)OCc2c(C)noc2C)c1C, the Potency was inconclusive [activator, partial curve, poor fit]. With CCCN(Cc1nc(-c2ccc(Cl)cc2)no1)CC1CCCO1 (stereo unspecified) the Potency was inconclusive [activator, partial curve, poor fit]. For CC1(c2ccc(OC(F)F)cc2)NC(=O)N(CC(=O)N2CCN(C(=O)c3ccco3)CC2)C1=O (stereo unspecified), the “activity, positive = re-replication” value was inactive: -3.6%. In the case of CCn1cc(CNC(=O)CCSc2nc(-c3ccco3)cc(C(F)(F)F)n2)cn1, the Potency is reported as inconclusive [activator, partial curve, poor fit]. For O=C1c2cccc3c(O)ccc(c23)C(=O)N1Cc1ccccc1, the Potency was inconclusive [activator, single point]. With Cc1cccn2c(=O)c3cc(C(=O)NCCc4ccccc4)c(=N)n(CCCn4ccnc4)c3nc12 the Potency was inconclusive [activator, single point]. With CCCCOc1ccc(CN(CCO)CCO)cc1[N+](=O)[O-] the Potency was inconclusive [activator, partial curve, poor fit]. In the case of COc1cccc(CN2CCN(C(=O)c3ccco3)CC2)c1OC, the Potency is reported as inconclusive [activator, partial curve, poor fit]. For COc1cccc(/C=C/C(=O)c2ccc(NC3=NCCCS3)cc2)c1, the Potency was inconclusive [activator, single point]. With O=C(CC(=O)c1ccccc1O)c1cccc(F)c1 the Potency was inconclusive [activator, partial curve, poor fit]. For CN1CCN(Cc2cc(=O)oc3ccc(Cl)cc23)CC1, the Potency was inconclusive [activator, single point]. In the case of Cc1ccnc(N2C(=O)c3cccc4c([N+](=O)[O-])ccc(c34)C2=O)c1, the Potency is reported as active: 4.61 µM. For Cc1ccc(N(C(=O)CNC(=O)c2ccco2)C(C(=O)NC2CCCCC2)c2cccnc2)cc1 (stereo unspecified), the “activity, positive = re-replication” value was inactive: 2.14%. In the case of Cn1cccc1/C=C1\SC(=Nc2ccccc2)NC1=O, the Potency is reported as inconclusive [activator, full curve, poor fit]. In the case of Cc1ccc(NC(=O)c2cc([N+](=O)[O-])ccc2N2CCOCC2)cc1S(=O)(=O)N(C)C, the “activity, positive = re-replication” value is reported as inactive: -12.5%. In the case of O=C(CN1C(=O)C2CCCCC2C1=O)Nc1nc(-c2ccccn2)cs1 (stereo unspecified), the Potency is reported as inconclusive [activator, partial curve, poor fit]. With O=C(Nc1nc2c(F)cc(F)cc2s1)c1ccco1 the Potency was inconclusive [activator, partial curve, poor fit]. For O=C(NC(=S)Nc1nc2c(s1)CCCC2)c1ccccc1, the “activity, positive = re-replication” value was inactive: 2.81%. With COc1cc2c(cc1OC)CN(C(=O)CCC(=O)c1ccc(F)cc1)CC2 the Potency was inconclusive [activator, single point]. For O=C(Nc1ccc2nc(C3CC3)n(Cc3ccc(F)cc3)c(=O)c2c1)c1ccco1, the Potency was inconclusive [activator, partial curve, poor fit]. In the case of CCOC(=O)/C=C1\SCC(=O)N1CC(O)CN1C(=O)CS/C1=C\C(=O)OCC, the Potency is reported as inconclusive [activator, full curve]. With O=C1C=C(Nc2cccnc2)c2ccccc2C1=O the Potency was active: 9.2 µM. For NC(=O)c1cnn2c(-c3cccc(C(F)(F)F)c3)ccnc12, the Potency was inconclusive [activator, single point]. In the case of CN1C(=O)c2ccc(S(=O)(=O)c3ccc(C(=O)O)cc3)cc2C1=O, the Potency is reported as inconclusive [activator, partial curve, poor fit]. In the case of CC(=O)N1N=C(c2cccc(O)c2)CC1c1cccs1 (stereo unspecified), the Potency is reported as inconclusive [activator, single point]. With CCOC(=O)CNC(=O)Cn1cnc2c(cnn2-c2ccc(C)cc2)c1=O the Potency was inconclusive [activator, partial curve, poor fit]. In the case of COCCOc1cnn(-c2cc(Oc3ccc(C)cc3)ncn2)c(=O)c1Cl, the Potency is reported as inconclusive [activator, partial curve, poor fit]. For Cc1ccc(/C=C/C(=O)OC(C)C(=O)Nc2ccc(Cl)cn2)o1 (stereo unspecified), the Potency was inconclusive [activator, single point]. With CC(C)c1ccc(NC(=O)COc2ccc(F)cc2C(=O)c2cnn(-c3ccccc3)c2)cc1 the “activity, positive = re-replication” value was inactive: 2.54%. For O=C(CCCCCCCC(=O)NNC(=O)Nc1ccccc1)NNC(=O)Nc1ccccc1, the “activity, positive = re-replication” value was inactive: 3.65%. For COc1ccc(C[C@H]2CN3C(=NC[C@H]3C)N2CCNC(=O)c2ccc(C)c(Br)c2)cc1, the “activity, positive = re-replication” value was inactive: 5.96%. In the case of CO/N=C/c1c(C(=O)OC)nn(-c2ccccc2)c1Cl, the Potency is reported as inconclusive [activator, single point]. For COc1cc(NS(=O)(=O)c2ccc(N/C=C(\C=O)c3nc4cc(Cl)ccc4o3)cc2)nc(OC)n1, the Potency was active: 20.6 µM. For O=C1CC(c2ccc(Cl)cc2)CC(O)=C1C=NCc1ccc(Cl)c(Cl)c1 (stereo unspecified), the Potency was inconclusive [activator, single point]. For COc1cc(C)c(NC(=O)c2cc(C3CC3)nc3c2cnn3C(C)C)cc1OC, the Potency was inconclusive [activator, single point]. With O=S(=O)(c1ccc(Cl)cc1)N1CCCc2ccccc21 the Potency was inconclusive [activator, partial curve, poor fit]. With COc1cc(/C=c2\sc3n(c2=O)C(c2ccccc2)C(c2ccccc2)=NN=3)ccc1O (stereo unspecified) the Potency was inconclusive [activator, partial curve]. In the case of Cc1ccc(NS(=O)(=O)c2cc([N+](=O)[O-])ccc2NNC(=S)Nc2cccc(Cl)c2)c(C)c1, the “activity, positive = re-replication” value is reported as inactive: -3.53%. For CN(C)S(=O)(=O)c1cccc(-c2nnc(-c3ccccc3)o2)c1, the “activity, positive = re-replication” value was inactive: 17.4%. In the case of COC(=O)c1ccc(Cn2nc(C)cc2C)cc1, the “activity, positive = re-replication” value is reported as inactive: 1.68%. For CC(=O)N1CC=CC1(CC(C)C)C(=O)NCCc1c[nH]c2ccccc12 (stereo unspecified), the Potency was inconclusive [activator, partial curve, poor fit]. With CC(CCc1ccccc1)NC(=O)/C=C/c1ccccc1 (stereo unspecified) the Potency was inconclusive [activator, partial curve, poor fit]. In the case of CCN(C(=O)CCCCC(=O)N(CC)c1ccccc1)c1ccccc1, the “activity, positive = re-replication” value is reported as inactive: 16.9%. With CN(c1ccccc1)S(=O)(=O)c1ccc(C(=O)OCC(=O)NCc2cccs2)cc1 the Potency was inconclusive [activator, partial curve, poor fit]. In the case of COc1cccc(/C=N/NC(=O)c2ccc(COc3ccc(Cl)cc3Cl)o2)c1, the Potency is reported as inconclusive [activator, partial curve, poor fit]. With COc1ccc([C@H]2CC(=O)C=C(c3ccc(CNC(=O)OC(C)(C)C)cc3)C2)cc1 the Potency was inconclusive [activator, single point]. In the case of CCCCCCC(C)n1[nH]c(=O)c2c(C)cc(=O)[nH]c21 (stereo unspecified), the Potency is reported as inconclusive [activator, partial curve, poor fit]. For Cc1ccc2nc3c(c(Nc4ccc5c(c4)OCCO5)c2c1)CCC3, the Potency was inconclusive [activator, partial curve, poor fit].

Reference: PubChem BioAssay AID624296 (National Center for Advancing Translational Sciences (NCATS), 2012)
Potency is read from the fitted curve at half-maximal effect; tags tell the direction and shape of the fitted curve.
